Measured values taken from PubChem BioAssay AID485364 (National Center for Advancing Translational Sciences (NCATS), 2010).
“And” between values parts separate entries of the source, which are not always exact repeats. Equal values may be shown once. Out of some 360,000 compounds screened, about 11,000 (3.1%) were called active. The inconclusive results got no clear call from the source; some entries with a clear call stand among them for comparison. Calls come from the whole dose curve; as a rule, active = well fitted inhibition curve with a large enough effect; inconclusive = small, poorly fitted or top-dose-only effect; inactive = no such curve, though single readings can be large or run the other way. No potency is given beside an inconclusive call; the fits are too rough.

molecular target: Schistosoma mansoni thioredoxin glutathione reductase (TGR) (UniProt Q962Y6); assay: qHTS Assay for the Inhibitors of Schistosoma Mansoni Peroxiredoxins; conditions: purified TGR, DTNB reduction, TNB absorbance 405 nm; activity change, negative = inhibition: at 114 µM (top of the series) unless noted; note: nearly all actives have a fitted effect of over 60% in size
In short: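 First, TGR (20 nM dispensed) and NADPH were mixed with compound. Second, a 15 min room-temperature incubation followed. Third, further NADPH and then DTNB were added to start the reaction. Finally, TNB absorbance was monitored kinetically.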
% is set by controls: 0 for no effect and ±100 for the full control effect; potency is the fitted concentration of half-maximal effect; tags give direction and shape of the fitted curve.

Structure (SMILES)	activity change, negative = inhibition	Potency
CCc1nc(SCC(=O)NCCc2ccccc2)c2oc3ccccc3c2n1	inactive: 0%	–
N#CC1=C(N)C(C#N)(C#N)[C@H](c2ccoc2)[C@H]2CN(Cc3ccccc3)CC=C12	–	inconclusive [inhibitor, partial curve]
Nc1nnn(CC(=O)N/N=C/C=C/c2ccccc2)n1	inactive: 0.517%	–
COc1cccc(-c2nc(CS(=O)CC(=O)N3CCN(c4cccc(C(F)(F)F)c4)CC3)c(C)o2)c1 (configuration not stated)	–	inconclusive [inhibitor, partial curve]
CCCCOP(=O)(OCCCC)C(Nc1ccc(C(=O)OCC)cc1)c1ccncc1 (configuration not stated)	–	inconclusive [inhibitor, single point]
Cc1ccc(NC(=S)NCC23C=CC(O2)C2C(=O)N(c4ccc(C)cc4)C(=O)C23)cc1 (configuration not stated)	–	active: 5.01 µM
CN(C)CCCOC(=O)c1sc2ccccc2c1Cl	inactive: 2.33%	–
COc1ccc(NC(=O)CCCS(=O)(=O)c2nc(-c3ccc(OC)c(OC)c3)cc(C(F)(F)F)n2)cc1OC	–	inconclusive [inhibitor, partial curve, poor fit]
COc1ccc(C2CC(=O)N3CN(C4CCCCC4)CSC3=C2C#N)cc1 (configuration not stated)	–	active: 7.94 µM
CCc1ccc(CNC(=O)CSCc2cnn(-c3ccccc3)c2-n2cccc2)cc1	inactive: -2.16%	–
CCCc1[nH][nH]c(=O)c1C(c1ccc(Cl)cc1)C(C#N)C#N (configuration not stated)	–	inconclusive [inhibitor, full curve, poor fit]
COC(=O)c1ccc(OC(=O)c2ccncc2)cc1O	–	active: 44.7 µM
N#Cc1ccccc1NCC(=O)N1CCN(S(=O)(=O)c2ccccc2)CC1	–	inconclusive [inhibitor, partial curve]
O=C(CNC(=O)c1cccs1)N/N=C/c1c(F)cccc1Cl	inactive: -22.5%	–
COc1ccc(NC(=S)NCc2cccs2)cc1OC	–	inconclusive [inhibitor, partial curve]
CC(=O)C1=C(O)C(=O)N(c2ccccn2)C1c1ccc(Cl)cc1 (configuration not stated)	–	inconclusive [inhibitor, partial curve, poor fit]
COc1cc(/C=C\C(=O)NCc2ccc3[nH]c(C)cc3c2)cc(OC)c1OC	inactive: -21%	–
COC(=O)c1cc(COC(=O)c2ccc3ccccc3n2)oc1C	–	inconclusive [inhibitor, partial curve]
O=C(NC(=S)Nc1ccc(CN2CCOCC2)cc1)c1ccc(-c2ccc(Br)cc2)o1	–	inconclusive [inhibitor, partial curve]
Clc1ccccc1Sc1cnc2ccccc2n1	inactive: 10%	–
COc1ccc(N2C(=O)CC(N3CCC(O)(c4ccc(Br)cc4)CC3)C2=O)cc1 (configuration not stated)	–	inconclusive [inhibitor, single point]
CC1CCN(c2ccc([N+](=O)[O-])cc2C(=O)NCC2CCCO2)CC1 (configuration not stated)	inactive: 6.99%	–
N#Cc1c(C#N)c(O)c2ccccc2c1O	–	inconclusive [inhibitor, single point]
CCCC[N+]12CCC(CC1)C(C(=O)c1cccs1)C2 (configuration not stated)	–	inconclusive [inhibitor, full curve, poor fit]

Structure (SMILES)	activity change, negative = inhibition	Potency
CNc1nc2[nH]c(=O)c3c(c2s1)OC(N)=C(C#N)C3c1cccc(F)c1 (configuration not stated)	–	inconclusive [inhibitor, partial curve]
COc1ccc(C(=O)COC(=O)CCCC(=O)NC2CCCCC2)cc1	–	inconclusive [inhibitor, full curve, poor fit]
COC(=O)CCCC1=CC2=CC(=O)C(C)(OC(=O)c3cccs3)C(=O)C2=CN1Cc1ccco1 (configuration not stated)	–	active: 35.5 µM
CC1Cc2ccccc2N1C(=S)Nc1ccc(S(N)(=O)=O)cc1 (configuration not stated)	inactive: -33.9%	–
Cc1cc(C)c(C(=O)COC(=O)c2c(C)noc2C)cc1C	–	inconclusive [inhibitor, single point]
COc1ccccc1NC(=O)N1CC=C(c2c[nH]c3ccccc23)CC1	–	inconclusive [inhibitor, partial curve]
O=C(c1ccc(CS(=O)(=O)c2c(Cl)cccc2Cl)o1)N1CCCC1	–	active: 35.5 µM
CC(=O)c1ccc(N2CCN(C(=O)CS(=O)(=O)c3cccc4nsnc34)CC2)cc1	–	inconclusive [inhibitor, partial curve]
COc1ccc(NC(=O)CNS(=O)(=O)c2ccc(Cl)cc2)cc1	inactive: -2.48%	–
CC(=O)C1=C(C)NC(SCC(N)=O)=C(C#N)C1CC(C)C (configuration not stated)	–	inconclusive [inhibitor, partial curve]
COc1ccc(CCNC(=S)NCCc2ccc(OC)c(OC)c2)cc1OC	inactive: 12.3%	–
COc1ccc(S(=O)(=O)N2CCN3CCCC3C2)cc1 (configuration not stated)	–	inconclusive [inhibitor, full curve, poor fit]
COc1ccc(CNC(=S)Nc2ccc(OC)cc2)cc1	inactive: 36.7%	–
COc1ccc(C(=O)N2CCCN(C)CC2)cc1S(=O)(=O)N(C)Cc1ccccc1	–	active: 35.5 µM
CN(C)c1ccc(/C=N/Nc2nncc3ccccc23)cc1	–	inconclusive [inhibitor, partial curve, poor fit]
CCOC(=O)c1ccc(NC(=O)c2nc(S(=O)(=O)Cc3ccccc3)ncc2Cl)cc1	–	active: 10 µM and active: 8.91 µM
Cc1cc(N2C(=O)C(=O)/C(=C(/O)c3ccccc3)C2c2cccs2)no1 (configuration not stated)	–	active: 39.8 µM
Cc1ccc(/C=N/NC(=O)CSc2ccccn2)o1	–	inconclusive [inhibitor, full curve]
CSc1ccccc1NC(=S)Nc1ccccc1C(F)(F)F	–	inconclusive [inhibitor, partial curve]
Cc1cnc(C)c(N2CCN(Cc3nc(-c4ccc(C)o4)oc3C)CC2)n1	–	inconclusive [inhibitor, partial curve]
COc1cc(NC2c3ncccc3C(=O)N2Cc2ccco2)cc(OC)c1 (configuration not stated)	–	active: 44.7 µM
COc1cccc(CN2CCN(Cc3nc4c(s3)CCCC4)CC2CCO)c1 (configuration not stated)	–	inconclusive [inhibitor, full curve]
O=C(CNc1cccc2ccccc12)N/N=C/c1ccc([N+](=O)[O-])o1	–	inconclusive [inhibitor, partial curve]
O=C(c1cc2ccccc2oc1=O)N(Cc1ccccc1)C1CCS(=O)(=O)C1 (configuration not stated)	inactive: 8.66%	–

Structure (SMILES)	activity change, negative = inhibition	Potency
Cc1cccc(-n2nc([N+](=O)[O-])c(=NCc3cccnc3)n2O)c1	inactive: -19.9%	–
C=CCn1c(Cc2c(C)[nH]c3ccccc23)nnc1SCC(=O)NCc1ccc(F)cc1	–	active: 31.6 µM
COc1ccc(Br)c2c1-c1nc(NC(=O)c3ccccc3SC)sc1C2	inactive: 0%	–
COc1cc(C(=O)Nc2cc(C(F)(F)F)ccc2Cl)cc(OC)c1OC	–	inconclusive [inhibitor, single point]
Cc1cccc(C2NC(=O)c3c(sc4c3CCN(C)C4)N2)c1O (configuration not stated)	–	inconclusive [inhibitor, partial curve]
Cc1ccc(CN2CCN(C)CC2)c(C)c1	inactive: -11%	–
CC(Sc1ncc(S(=O)(=O)c2ccc(C(C)C)cc2)c(N)n1)C(=O)Nc1ccccc1 (configuration not stated)	–	inconclusive [inhibitor, single point]
CCN1CCCC(CO)(Cc2ccccc2)C1 (configuration not stated)	–	inconclusive [inhibitor, single point]
CCCOc1ccc(/C(O)=C2/C(=O)C(=O)N(CCCn3ccnc3)C2c2cccnc2)cc1 (configuration not stated)	–	inconclusive [inhibitor, partial curve]
N#CC1(C#N)C(C(N)=O)C1c1ccccc1 (configuration not stated)	–	inconclusive [inhibitor, partial curve]
O=C(NC(=S)Nc1ccccc1N1CCCC1)c1ccc(-c2cccc([N+](=O)[O-])c2)o1	–	inconclusive [inhibitor, partial curve]
CCC1CCc2sc(C(=O)N3CCCN(C)CC3)cc2C1 (configuration not stated)	–	inconclusive [inhibitor, full curve, poor fit]
CCCCNC(=O)CS(=O)Cc1nc(-c2cccc(C)c2)oc1C (configuration not stated)	–	inconclusive [inhibitor, partial curve]
COc1ccc(CNCCc2ccc3c(c2)OCO3)c(OC)c1OC	–	inconclusive [inhibitor, partial curve]
CC(=O)Oc1ccc(Nc2ccccc2)cc1	–	inconclusive [inhibitor, partial curve]
CC(C)n1c(SCc2ccc(Cl)cc2)nc2c1c(=O)[nH]c(=O)n2C	inactive: 18.9% [at 11.4 µM]	–
CS(=O)(=O)c1ccccc1COC(=O)Nc1ccc(Cl)cc1	inactive: -1.21%	–
CCOC(=O)CSc1nc2sc3c(c2c(=O)n1-c1ccccc1)CCN(C(C)C)C3	–	inconclusive [inhibitor, full curve]
CCOC(=O)c1c(C)[nH]c(C(=O)NCc2ccco2)c1C	inactive: 2.27%	–
O=C(NCc1ccco1)C(c1ccc(F)cc1)N(Cc1cccnc1)C(=O)Cn1nnc2ccccc21 (configuration not stated)	–	inconclusive [inhibitor, full curve, poor fit]
Cc1noc2ncnc(Sc3ccccc3Cl)c12	–	inconclusive [inhibitor, full curve]
Nc1ccccc1N=Cc1c(O)n(CCC2=CCCCC2)c(=O)[nH]c1=O	–	inconclusive [inhibitor, partial curve]
Cc1cc(C(=O)N/N=C/c2cccc([N+](=O)[O-])c2)c2ccccc2n1	inactive: 4.84%	–
O=C(NC1CCCCC1)C(=S)NCc1ccccc1	inactive: 6.91%	–
